A collection of fitness landscapes (doi:10.1016/j.celrep.2020.107928)
In all, about 81,000 sequences were measured (“one-hybrid fitness for binding parS DNA”: median about -0.17, highest 2% from about 0.51 on). The list shows a part of the results.

B1: Caulobacter ParB omega fusion; a variant is named by its letters at X, in order, B8GW30 (parent)
chain: MESVVVGEPGMSEGRRGLGRGLSALLGEVDAAPAQAPGEQLGGSREAPIEILQRNPDQPRRTFREEDLEDLSNSIREKGVLQPILVRPSPDTAGEYQIVAGERAWRAAQRAGLKTVPIMVRELDDLAVLEIGIIENVQRADLNVLEEALSYKVLMEKFERTQENIAQTIGKSXSHVANXMRLLXLPDEVQSYLVSGELTAXHARAIAAAADPVALAKQIIEGGLSVRETEALARKAPNLSAGKSKGGRPPRVKDTDTQALESDLSSVLGLDVSIDHRGSTGTLTITYATLEQLDDLCNRLTRGI

Variants of: B1
Assay: one-hybrid fitness for binding parS DNA (scaled: cognate 1, non-cognate 0); higher = stronger binding
Details: with parS DNA site
How it was run: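 Pre- and post-selection plasmids were Illumina-sequenced, three replicate libraries were pooled, and any variant with under 10 reads was removed. The libraries were Caulobacter ParB with four specificity codons randomised, selected in E. coli USO through a HIS3 reporter whose site is 19 bp from the promoter. Cells grew 48 hours at 37°C on M9 without histidine, with 0.1 mM IPTG and 5 mM 3-AT. Fitness is the log change in variant-to-wild-type read ratio, rescaled against cognate and non-cognate.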

Row | Variant | one-hybrid fitness for binding parS DNA
1 | SYEG | ≤ 0.2
2 | TSSI | ≤ 0.2
3 | AEGC | ≤ 0.2
4 | LWRY | ≤ 0.2
5 | PRSM | ≤ 0.2
6 | YECT | ≤ 0.2
7 | SIRS | ≤ 0.2
8 | CRTR | ≤ 0.2
9 | WTRY | ≤ 0.2
10 | SRIE | ≤ 0.2
11 | RFGN | 0.435
12 | NPPL | ≤ 0.2
13 | PYGY | ≤ 0.2
14 | RCYF | 0.316
15 | CNPM | ≤ 0.2
16 | RVDK | ≤ 0.2
17 | SGYT | ≤ 0.2
18 | NHYE | ≤ 0.2
19 | KERP | ≤ 0.2
20 | AMAG | ≤ 0.2
21 | IIFG | ≤ 0.2
22 | RQQT | 0.895
23 | GHFR | ≤ 0.2
24 | TQNS | ≤ 0.2
25 | QHRK | ≤ 0.2
26 | SQMT | ≤ 0.2

Row | Variant | one-hybrid fitness for binding parS DNA
27 | PTEY | ≤ 0.2
28 | MRQS | ≤ 0.2
29 | WRYC | ≤ 0.2
30 | RCMI | ≤ 0.2
31 | YARK | ≤ 0.2
32 | PLGQ | ≤ 0.2
33 | LGEW | ≤ 0.2
34 | MTFS | ≤ 0.2
35 | PCWR | ≤ 0.2
36 | KNGP | ≤ 0.2
37 | LTNP | ≤ 0.2
38 | EGGM | ≤ 0.2
39 | ELER | ≤ 0.2
40 | EEWR | ≤ 0.2
41 | AGHW | ≤ 0.2
42 | PAYQ | ≤ 0.2
43 | EYMS | ≤ 0.2
44 | VGVR | ≤ 0.2
45 | GTKT | ≤ 0.2
46 | AICP | ≤ 0.2
47 | YCVM | ≤ 0.2
48 | MIFI | ≤ 0.2
49 | FAFG | ≤ 0.2
50 | GSYV | ≤ 0.2
51 | VKRR | ≤ 0.2
52 | QKKN | ≤ 0.2

Row | Variant | one-hybrid fitness for binding parS DNA
53 | EMLS | ≤ 0.2
54 | KCAT | ≤ 0.2
55 | VHLS | ≤ 0.2
56 | KRWA | ≤ 0.2
57 | SPFG | ≤ 0.2
58 | GMDC | ≤ 0.2
59 | LRNW | ≤ 0.2
60 | LWFR | ≤ 0.2
61 | AHTP | ≤ 0.2
62 | LAKP | ≤ 0.2
63 | ASER | ≤ 0.2
64 | IYIG | ≤ 0.2
65 | GGKV | ≤ 0.2
66 | DHNK | ≤ 0.2
67 | LGAA | ≤ 0.2
68 | WPYC | ≤ 0.2
69 | RQLT | 0.86
70 | EPMS | ≤ 0.2
71 | ICGC | 0.223
72 | SAKR | ≤ 0.2
73 | KKRL | ≤ 0.2
74 | QSDF | ≤ 0.2
75 | LLED | ≤ 0.2
76 | TQRY | ≤ 0.2
77 | GLST | ≤ 0.2
